In publication PMC4336329 (PLoS ONE, 2015):
Among all 310,000 compounds or so, about 14,000 (4.5%) showed an effect of 50% or more. Effects have a minus sign here. This is one part of the list.

Biological target: human ether-à-go-go-related gene (hERG) potassium channel (human, UniProt Q12809)
Experiment: primary screen, population patch clamp on CHO cells stably expressing hERG
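Also: peak tail current of the secondary pulse compared with the same well before compound.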

Chain of human ether-à-go-go-related gene (hERG) potassium channel (Q12809 whole entry, looked up): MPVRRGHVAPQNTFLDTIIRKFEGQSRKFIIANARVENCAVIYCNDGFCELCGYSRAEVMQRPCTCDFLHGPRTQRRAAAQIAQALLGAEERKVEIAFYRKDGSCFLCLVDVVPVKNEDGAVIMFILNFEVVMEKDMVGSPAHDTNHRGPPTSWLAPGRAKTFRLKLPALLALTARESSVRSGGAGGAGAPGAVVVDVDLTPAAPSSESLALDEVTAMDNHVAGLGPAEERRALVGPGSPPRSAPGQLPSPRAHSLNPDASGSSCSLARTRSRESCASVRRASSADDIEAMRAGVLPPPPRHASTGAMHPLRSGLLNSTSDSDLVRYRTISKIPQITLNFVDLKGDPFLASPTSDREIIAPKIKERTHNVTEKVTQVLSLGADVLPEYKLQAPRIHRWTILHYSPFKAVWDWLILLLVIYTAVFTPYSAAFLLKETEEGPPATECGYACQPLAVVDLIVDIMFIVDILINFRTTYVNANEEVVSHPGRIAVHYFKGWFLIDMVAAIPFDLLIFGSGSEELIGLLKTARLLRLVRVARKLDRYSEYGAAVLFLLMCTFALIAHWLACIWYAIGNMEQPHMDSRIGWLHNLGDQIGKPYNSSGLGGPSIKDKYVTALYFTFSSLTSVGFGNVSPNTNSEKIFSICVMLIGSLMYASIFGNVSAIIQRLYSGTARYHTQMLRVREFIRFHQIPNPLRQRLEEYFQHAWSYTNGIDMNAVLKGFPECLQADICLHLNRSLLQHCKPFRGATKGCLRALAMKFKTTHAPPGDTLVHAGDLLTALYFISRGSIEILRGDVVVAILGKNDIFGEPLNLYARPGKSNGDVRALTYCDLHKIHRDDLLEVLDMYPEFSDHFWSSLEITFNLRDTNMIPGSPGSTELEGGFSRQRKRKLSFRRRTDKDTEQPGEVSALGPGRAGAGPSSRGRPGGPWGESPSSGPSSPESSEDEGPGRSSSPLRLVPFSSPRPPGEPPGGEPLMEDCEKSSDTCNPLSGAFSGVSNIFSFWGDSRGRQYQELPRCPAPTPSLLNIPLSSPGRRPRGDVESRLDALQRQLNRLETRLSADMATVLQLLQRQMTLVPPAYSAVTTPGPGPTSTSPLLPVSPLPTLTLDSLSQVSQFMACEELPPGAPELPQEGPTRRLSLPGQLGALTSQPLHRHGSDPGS

Row | Structure (SMILES) | hERG current change (%, negative = inhibition) at 10uM
1 | O=C(Nc1ccccc1Cl)N1C2CCC1CC(O)(c1cccnc1)C2 (centres unmarked) | -7.5%
2 | O=C1N=c2ccccc2=C1c1sc(NS(=O)(=O)c2ccccc2)nc1O | 29.1%
3 | CN(C)S(=O)(=O)c1cccc(C(=O)NC2CCCc3ccccc32)c1 (centres unmarked) | -7.65%
4 | COc1ccc(C=C(C#N)C#N)c(CSc2ccccn2)c1 | 1.19%
5 | O=C(Nc1ccccc1)Nc1ccccn1 | 11.2%
6 | CSc1nsc(SCC(=O)NCc2ccc(C)cc2)n1 | 10.1%
7 | Cc1cc(C)cc(OCC(=O)OCC(=O)NCc2cccs2)c1 | 16.4%
8 | COC(=O)C1=C(NC(=O)COc2ccc(Cl)cc2Cl)CCS1 | 22.9%
9 | CCc1ccc(NC2=NCC(=O)N2c2ccc3c(c2)OCCO3)cc1 | -2.28%
10 | Cc1cc(C)c2c(N=CN(C)C)c(C(=O)N3CCN(c4ncccn4)CC3)sc2n1 | -3.81%
11 | CC12CCC(C(=O)Nc3ccc(Cl)cc3)([C@H](Br)C1=O)C2(C)C (some centres unmarked) | -25.6%
12 | CC(C)OC(=O)c1ccc(S(N)(=O)=O)o1 | 7.2%
13 | CCOc1ccc(S(=O)(=O)N2CCN=C2c2ccccc2)c(C)c1C | -6.37%
14 | Cc1ccc(NC(=O)CSc2nnc3c(n2)[nH]c2ccccc23)cc1 | 4.82%
15 | O=C(NC1CCCCC1)C(=O)c1c(-c2ccccc2)[nH]c2ccccc12 | -1.09%
16 | O=C(Nc1ccccc1Cl)N1CCN(c2ccc3nncn3n2)CC1 | -23.2%
17 | O=C(Nc1ccc(N2CCOCC2)cc1)C1CC1 | 6.7%
18 | CNc1ccccc1C(C)(C)c1cc(-c2cccc(OC)c2)no1 | -24.6%
19 | Clc1ccc(Sc2cc(N3CCOCC3)nc(-c3ccccc3)n2)cc1 | 8.59%
20 | Cc1nc([N+](=O)[O-])cn1-c1ccc(N)cc1 | 10.3%
21 | CC1CCCN(c2ccc(C(=O)OCC(=O)N3c4ccccc4Sc4ccccc43)cc2[N+](=O)[O-])C1 (centres unmarked) | 1.14%
22 | CC(=O)Oc1ccc(C(=O)NCc2ccc3c(c2)OCO3)cc1 | -23.4%
23 | COCCn1c(SC(C)C(=O)Nc2ccc(N3CCOCC3)cc2)nnc1-c1ccncc1 (centres unmarked) | -8.54%

Row | Structure (SMILES) | hERG current change (%, negative = inhibition) at 10uM
24 | O=C(COC(=O)c1ccc(S(=O)(=O)N2CCCC2)cc1)Nc1cccc(Cl)c1 | 1.38%
25 | C/C(CC(=O)Nc1ccc(Cl)cc1C(F)(F)F)=N\NC(N)=S | 10.7%
26 | O=C(O)CSc1nnc(COc2ccc(Br)cc2)n1-c1ccccc1 | 15%
27 | CCN(CC)C(=O)c1nc[nH]c1C(=O)N(C)Cc1ccccc1 | 14.1%
28 | COc1ccc(NC(=O)CNC(=O)C2CCCCC2)cc1 | 18.1%
29 | CC1(c2ccccc2)NC(=O)N(CC(=O)NC(=O)NCc2ccco2)C1=O (centres unmarked) | 13.9%
30 | CCOP(=O)(Cc1ccc(C(C)(C)CC(C)=O)o1)OCC | 5.35%
31 | Cc1ccc(S(=O)(=O)Nc2c(C)n(C)n(-c3ccccc3)c2=O)cc1 | 9.73%
32 | COc1cc(/C=N/NC(=S)N/N=C/c2cc(OC)c(OC)c(OC)c2)cc(OC)c1OC | 17.6%
33 | Nc1cccc(CP(=O)(c2ccccc2)c2ccccc2)c1 | 14.6%
34 | C=CCc1cccc2cc(NC(C)=O)c(=O)oc12 | -10%
35 | CCCSC(=S)c1c(C)[nH]n(-c2ccccc2)c1=O | 16.5%
36 | CN(C)/C(CN1CCN(C=O)CC1)=C1\N=C(c2ccccc2)OC1=O | -40.9%
37 | Cc1ccc(OCc2cc(C(=O)NC(C)Cc3cccnc3)no2)cc1C (centres unmarked) | -91%
38 | C/C=C/Cn1cccc(C(=O)Nc2ccc(OC)cc2)c1=O | -11.6%
39 | C=CCNC(=O)NC(=O)COC(=O)COc1ccc(Br)cc1F | -4.28%
40 | CC1(C)Cc2ccccc2-c2[nH]c(=S)[nH]c(=O)c21 | 12.5%
41 | C=C(C)CSC1=C(C#N)C(c2ccsc2)CC(=O)N1 (centres unmarked) | -12.9%
42 | CCOc1ccc(S(=O)(=O)NCCC(=O)Nc2ncccc2C)cc1 | 6.56%
43 | Cc1csc(N)n1 | 7.04%
44 | Fc1ccc(-n2cc(CNCCc3ccncc3)c(-c3ccccc3Cl)n2)cc1 | -75.2%
45 | Cn1c(SCC#N)nc2ccccc2c1=O | -6.78%
46 | N/C(=N\OC(=O)CCC1CCCC1)c1ccc(Cl)cc1 | 12.2%

Row | Structure (SMILES) | hERG current change (%, negative = inhibition) at 10uM
47 | COc1ccccc1CNC(=O)/C=C/c1ccc(S(=O)(=O)N2CCOCC2)cc1 | 0.0361%
48 | O=c1c(Oc2ccccc2Br)c(C(F)(F)F)oc2c(CN3CCCC3)c(O)ccc12 | -9.81%
49 | CCN(CC)c1ccc(/C=C2\C(=O)NC(=O)N(CC3CCCO3)C2=O)cc1 (centres unmarked) | 8.11%
50 | Cc1nc(SCc2ccccc2C)n[nH]1 | 8.26%
51 | CC(C)CN(C(=O)COC(=O)c1cc2c(s1)CCC2)C1CCS(=O)(=O)C1 (centres unmarked) | 8.4%
52 | COC(=O)c1cc2ccsc2n1CC(=O)Nc1cc(C)cc(C)c1 | 5.43%
53 | Cc1cc(OC(=O)c2c(C)cc(OC(=O)c3c(C)cc(O)cc3O)cc2O)cc(O)c1C(=O)O | 5.56%
54 | CC(C(=O)NCc1ccco1)n1ccc2cc(S(=O)(=O)N3CCCC3)ccc21 (centres unmarked) | 3.75%
55 | COc1ccc(OC)c2c1CCC1NCCOC21.Cl (centres unmarked) | 10.9%
56 | Cc1nc2nc(-c3cccnc3)[nH]n2c(=O)c1Cc1ccccc1 | -19.5%
57 | COc1cc(NC(=O)C2=CC(c3ccc(C)cc3)=NS(=O)(=O)N2C)cc(OC)c1OC | 2.52%
58 | COc1ccc(OC)c(C(=O)COC(=O)CNC(=O)c2ccccc2)c1 | -3.75%
59 | Cc1sc(-n2c(C)cc(C=C3C(=O)NC(=O)NC3=O)c2C)c(C#N)c1C | 2.51%
60 | Cc1ccc(C(=O)N/C(=C\c2cccs2)C(=O)NC2CCCCC2)cc1 | -47.2%
61 | Cc1c(NS(=O)(=O)c2cccc(C(=O)Nc3ccccc3)c2)c(=O)n(-c2ccccc2)n1C | -11%
62 | O=C(NC1CCCCCC1)C1CCN(S(=O)(=O)c2cccc3cccnc23)CC1 | -6.36%
63 | O=c1[nH]ncc2c3ccccc3n(Cc3ccc(F)cc3)c12 | 5.74%
64 | COc1ccc(-c2n[nH]c(=S)n2-c2ccc(C)cc2)cc1OC | 9.48%
65 | NC(=O)C1CCN(C(=O)CCC(=O)c2ccc(Br)cc2)CC1 | 5.22%
66 | O=C1CC(c2ccc(OCCCCCOc3ccc(C4CC(=O)NC4=O)cc3)cc2)C(=O)N1 (centres unmarked) | 8.33%
67 | Cc1ccc(N(C)S(=O)(=O)c2cccc(C(=O)Nc3nc4ccccc4[nH]3)c2)cc1 | 11.6%
68 | CCOC(=O)c1c(NC(=S)Nc2ccc(OCC)cc2)sc2c1CCN(C)C2 | -70.4%
69 | CC(Sc1nnc(C2CC2)n1N)C(=O)NC1CCCCC1C (centres unmarked) | 0.167%

Row | Structure (SMILES) | hERG current change (%, negative = inhibition) at 10uM
70 | CC(NC(=O)CCn1nc(-c2ccc(Cl)cc2)ccc1=O)c1ccccc1 (centres unmarked) | -60.6%
71 | COC(=O)C1C2c3ccccc3OC1(C)N=c1s/c(=C/c3cnn(C)c3)c(=O)n12 (centres unmarked) | -11.9%
72 | Cc1ccc(SCc2cc(=O)[nH]c(N3CCOCC3)n2)cc1 | -0.0128%
73 | O=C(CNc1cccc(S(=O)(=O)N2CCCCCC2)c1)Nc1cccc([N+](=O)[O-])c1 | -71.9%
74 | CC(=O)CCc1oc2ccc(C)cc2c1-c1ccc(C)o1 | -7.62%
75 | CCCn1c(=O)cc(N)n(-c2ccc(OC(F)(F)F)cc2)c1=O | 6.67%
76 | CCOC(=O)C1CCN(Cc2ccccc2C(F)(F)F)CC1 | -4.86%
77 | CCOC(=O)C1CCCN(C2=NC(=O)/C(=C/c3ccc(N(C)C)cc3)S2)C1 (centres unmarked) | -24.9%
78 | CCOC(=O)C1CCN(C(=O)CN(c2ccc(OC)c(OC)c2)S(=O)(=O)c2ccccc2)CC1 | -14.7%
79 | O=C(NCCC1=CCCCC1)c1c(O)nc2sccn2c1=O | -23.7%
80 | CN1CCC(=NNC(=O)CN(c2cccc(Cl)c2)S(C)(=O)=O)CC1 | 19.7%
81 | Cc1cc(C)nc(Sc2ccc(/C=C(\C#N)C(=O)Nc3ccccc3)o2)n1 | 2.31%
82 | CCN(CC)S(=O)(=O)c1cccc(NC(=O)CN(C)Cc2cccc(OC)c2)c1.O=C(O)C(=O)O | -37.6%
83 | Cc1cc(C)c(C(=O)O)c(CC(C)(C)C(=O)O)c1 | 16.6%
84 | COc1ccc(-n2c(Cn3c(=O)sc4ccccc43)nnc2SC)cc1 | -14.2%
85 | CN(C)c1ccc(C(=O)Nc2ccc(S(=O)(=O)NC3=NCCCCC3)cc2)cc1 | -5.38%
86 | Cc1ccc(N2CC(C(=O)Nc3c(C)n(C)n(-c4ccccc4)c3=O)CC2=O)cc1 (centres unmarked) | 24.4%
87 | O=C(C1COc2ccccc2O1)N1CCN(Cc2ccc(Br)cc2F)CC1 (centres unmarked) | -23%
88 | O=C1NNC(=O)C2C3C=CC(C4CC34)C12 (centres unmarked) | -17.8%
89 | CCOC(=O)Cc1csc(N/C(=N/S(=O)(=O)c2cc(Br)ccc2OCC)c2ccccc2)n1 | -37.2%
